This note sets out measurements from PubChem BioAssay AID1963576 (National Center for Advancing Translational Sciences (NCATS), 2024).

Screen size: about 46,000 compounds; about 60 (0.1%) were called active. Another 3% or so got no clear call; they are omitted. Calls follow the shape of the dose curve; as a rule, active = well fitted inhibition curve with a large enough effect; inconclusive = small, poorly fitted or top-dose-only effect; inactive = no such curve, though single readings can be large or run the other way. Some of the results follow.

The test can be described thus: Primary qHTS assay for Inhibitors of ovarian cancer metastasis using an organotypic tumor microenvironment (TME) model. Also: nearly all actives have a fitted effect of over 65% in size.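 As to activity change, negative = inhibition: plate controls were DMSO wells for no effect and tomatine positive control wells for full effect.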 The note with it: SKOV3ip1-GFP adhesion/invasion on 3D omental model, fluorescence; series mostly up to 45.8 µM; activity change, negative = inhibition: at the top concentration. In outline:
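Adhesion/invasion was scored as fixed GFP-labeled SKOV3ip1 cell counts (488/509 nm), normalized to DMSO and tomatine controls. Cancer cells in serum-free medium, with four compound doses (0.36-46 umol/L), sat 2 hr at RT then 16 hr at 37 C on a 48 hr fibroblast/mesothelial/ECM culture.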
In general terms: In qHTS, concentration-response curves come from the screen itself.
With `O=c1oc2c(CN3CCOCC3)c(O)ccc2cc1-c1ccc(Cl)cc1`, the “activity change, negative = inhibition” value was inactive: -2.23%.
Consider `CCc1ccccc1NC(=O)Cn1c(=O)nc(-c2ccccc2)c2ccccc21`, for which the “activity change, negative = inhibition” value is inactive: 3.73%.
On to `O=C(CCNS(=O)(=O)c1ccc2c(c1)CCN2C(=O)C1CC1)N1CCN(c2ccc(F)cc2)CC1`, for which the “activity change, negative = inhibition” value is inactive: -2.99%.
In the case of `COc1ccc(CCNC(=O)CCCCn2c(=O)c3ccccc3n(CC(=O)Nc3ccccc3C)c2=O)cc1OC`, the “activity change, negative = inhibition” value was inactive: 5.36%.
Turning to `COc1ccc(S(=O)(=O)c2cn(Cc3ccccc3)c3cc(N4CCCC4)c(F)cc3c2=O)cc1`, the “activity change, negative = inhibition” value is inactive: 5.05%.
As for `CCN1C(C(=O)c2ccccc2)=C(OC(=O)C(C)C)c2ccccc2S1(=O)=O`, the call was inactive.
On the same count and under the same terms, the value for `CCCC(O)c1nc2ccccc2n1CCCCOc1ccc(OC)cc1` (stereo unspecified) was “inactive”.
For the compound `Cc1cc(C)cc(NC(=O)CSc2nncn3c2cc2occc23)c1`, the “activity change, negative = inhibition” value was inactive: 16.5%.
Turning to `C=C(C)CSc1nc2sc3c(c2c(=O)n1CCCC)CCCC3`, the “activity change, negative = inhibition” value was inactive: -3.76%.
For `CCOC(=O)c1c(C)[nH]c(C)c1S(=O)(=O)N1CCC(C(=O)NCc2ccc(C)cc2)CC1`, the call was inactive.
Still for that read-out and setting: as for `CCn1c2c(c(=O)n3ncc(C(=O)Nc4cccc(Cl)c4C)c13)CN(Cc1ccc(OC)cc1)CC2`, the entry is “inactive”.
Turning to `COc1ccc(CNC(=O)C2CCN(c3nc4ccc(C)cc4[nH]3)CC2)cc1`, the “activity change, negative = inhibition” value is inactive: -4.88%.
With `COc1ccccc1C(=O)NC1(C(F)(F)F)C(=O)Nc2c1c(=O)[nH]c(=O)n2CCc1ccccc1` (stereo unspecified), the compound was called inactive.
Regarding `Cc1ccc(C)c(CN2CCCN(Cc3cc(C)ccc3C)S2(=O)=O)c1`, the “activity change, negative = inhibition” value was inactive: 1.77%.
For `COc1ccc(CNC(=O)c2nnn(CC(=O)Nc3cc(C)cc(C)c3)c2N)cc1`, the “activity change, negative = inhibition” value is inactive: -6.46%.
With `O=C(Nc1ccc(N2CCN(CCOc3ccc(Cl)cc3)CC2)c(C(=O)O)c1)c1ccc(F)cc1`, the “activity change, negative = inhibition” value is inactive: -6.65%.
With `CCCn1c(SCC(O)c2cccc(OC)c2)nc2ccccc21` (stereo unspecified), the “activity change, negative = inhibition” value is inactive: -15.9%.
With `Cc1ccc(S(=O)(=O)C(CNC(=O)C(=O)NCCc2ccccc2)c2ccco2)cc1` (stereo unspecified), the result was inactive.
As to `CCc1nc2ccccc2n1CCCCOc1ccccc1C`, the “activity change, negative = inhibition” value was inactive: -16.3%.
Regarding `COC(=O)c1ccc(-n2c(/C=C\c3cccc(Br)c3)nc3ccccc3c2=O)cc1`, the “activity change, negative = inhibition” value was inactive: -14.2%.
On to `Cc1nn(Cc2ccc(Cl)cc2)c(C)c1NC(=O)c1noc2c1CCc1ccccc1-2`, for which the “activity change, negative = inhibition” value was inactive: -0.987%.
Take `CC(C)Oc1ccc(CNC(=O)Cn2c(=O)oc3ccccc32)cc1`: the “activity change, negative = inhibition” value is inactive: -4.24%.
In the case of `CC(C)CCNC(=O)CSc1c2c(nc3ccc(Cl)cc13)CCCC2`, the “activity change, negative = inhibition” value was inactive: -3.35%.
Regarding `CCOc1ccc(CNC(=O)C2CCCN(S(=O)(=O)c3ccc4c(c3)CCCC(=O)N4)C2)cc1` (stereo unspecified), the outcome was inactive.
In the case of `Cc1ccc(OCc2nc(-c3ccc(C(=O)N4CCN(c5ccc(Cl)cc5)CC4)cc3)oc2C)cc1`, the “activity change, negative = inhibition” value is inactive: -14.7%.
On the same count and under the same terms, the value for `CCCn1c(=O)sc2cc(NC(=O)c3ccccc3OCC)ccc21` was inactive: 6.72%; that for `CCCCCCn1c(CNC(=O)c2ccccc2)nc2ccccc21` was inactive: -9.53%.
Turning to `CCOC(=O)C1=C(CN2CCN(CC)CC2)NC(=O)NC1c1ccc(Cl)cc1` (stereo unspecified), the outcome was inactive.
`Cc1cc(C(=O)NCc2ccccc2C)c2c(C)nn(-c3cccc(F)c3)c2n1`: the “activity change, negative = inhibition” value is inactive: -12.5%.
Same read-out and setting: as for `COc1cccc(CNC(=O)Cn2cc3c(n2)-c2c(oc(C(=O)N4CCCC4)c2C)CC3)c1`, the figure is inactive: 8.75%; as for `CCc1ccc(NC(=O)Cn2ncc3c4ccccc4n(C)c3c2=O)cc1`, inactive: 6.14%.
For the compound `CCOC(=O)c1scc(-c2ccc(C)cc2)c1S(=O)(=O)Nc1cc(Cl)ccc1OC`, the compound was classed as inactive.
Turning to `COc1ccc2c(c1)CCc1c(C(=O)Nc3ccccc3C(F)(F)F)noc1-2`, the “activity change, negative = inhibition” value is inactive: 1.36%.
Regarding `O=C(CC1N=C2c3ccccc3N=C(SCc3ccc(F)cc3)N2C1=O)NCc1cccs1` (stereo unspecified), the “activity change, negative = inhibition” value is inactive: -0.284%.
For the compound `CC[C@H]1OC(=O)[C@H](C)[C@@H](O[C@H]2C[C@@](C)(OC)[C@@H](O)[C@H](C)O2)[C@H](C)[C@@H](O[C@@H]2O[C@H](C)C[C@H](N(C)C)[C@@H]2O)[C@](C)(OC)C[C@@H](C)C(=O)[C@H](C)[C@@H](O)[C@]1(C)O`, the “activity change, negative = inhibition” value is inactive: -2.42%.
The same measure, in the same setting: the value for `CCOC(=O)c1c(S(=O)(=O)NCC(=O)Nc2cccc(CC)c2)c(C)n(C)c1C` was inactive: -2.09%; that for `CCOc1ccc(NC(=O)c2cc(S(=O)(=O)NC3CCCC3)ccc2F)cc1` was inactive: -4.83%; that for `COC(=O)Cn1c(CN2CCN(c3ccc(OC)cc3)CC2)nc2c1c(=O)[nH]c(=O)n2C` was inactive: -7.92%.
As to `CCc1ccc(NC(=O)CSc2nc(-c3ccccc3)c(C#N)c(=O)[nH]2)cc1`, the “activity change, negative = inhibition” value was inactive: -4.74%.
The same measure, in the same setting: as for `CCN(CC)C(=O)c1sc2c(c1C)c(=O)n(-c1ccccc1)c(=O)n2Cc1cc(=O)n2ccccc2n1`, the figure is inactive: 4.93%; as for `Clc1cccc(-c2csc(-c3nc(-c4ccc(Br)s4)cs3)n2)c1`, inactive: 11.9%.
For `CCCCn1cc(S(=O)(=O)c2ccc(OC)cc2)c(=O)c2cc(F)c(F)cc21`, the “activity change, negative = inhibition” value is inactive: -7.38%.
In the case of `COc1ccc(-n2c(=O)c3c(c4cc(OC)ccc4n3C)n(Cc3ccc(F)cc3Cl)c2=O)cc1`, the “activity change, negative = inhibition” value is inactive: 4.13%.
As to `COc1ccccc1NC(=O)c1c(NC(=O)Cc2ccccc2)sc2c1CCC(C(C)(C)C)C2` (stereo unspecified), the compound was classed as inactive.
As for `CCc1ccc(CNC(=O)Cn2c(-c3cccs3)cc3cc(F)ccc32)cc1`, the “activity change, negative = inhibition” value is inactive: 18.2%.
The same measure, in the same setting: the value for `O=C(Nc1cnc(N2CCC(N3CCCCC3)CC2)c(C(=O)O)c1)c1ccc(Br)cc1` was inactive: 3.66%.
